Data as given in the supplement of paper PMC4166925.
± gives the standard deviation of the averaged measurements. In all, about 33,000 sequences were measured (“E-score (dimensionless, -0.5 to 0.5)”: median about -0.046, highest 2% from about 0.36 on). The list shows a part of the results.

system: T1, SpTbr T-box DNA-binding domain (GST fusion); experiment: PBM E-score of 8-mer (E-score (dimensionless, -0.5 to 0.5)); Tbr is Tbrain of the sea star Patiria miniata (Pm) or the sea urchin Strongylocentrotus purpuratus (Sp); higher = stronger binding preference; most listed sequences are background and not binding sites; conditions: the construct has about 5 more residues each side
T1 sequence: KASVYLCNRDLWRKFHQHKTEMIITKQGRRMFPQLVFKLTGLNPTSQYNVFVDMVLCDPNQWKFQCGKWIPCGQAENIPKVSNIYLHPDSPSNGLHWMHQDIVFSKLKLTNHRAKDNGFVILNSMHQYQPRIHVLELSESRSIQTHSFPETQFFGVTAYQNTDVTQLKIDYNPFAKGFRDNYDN
In short: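 Universal Agilent oligonucleotide arrays, made double-stranded by primer extension, were incubated with 200 nM GST-fused Tbr T-box DNA-binding domain in PBS (pH 7.5). The protein was expressed in BL21 E. coli at 20 °C and purified by glutathione affinity chromatography. After scanning and quantification, the Universal PBM Analysis Suite assigned an enrichment E-score to each ungapped 8-mer, averaged over duplicate arrays.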

| Sequence | PBM E-score of 8-mer |
| --- | --- |
| GCGTGCCA | 0.128 ± 0.01 |
| ATACTATC | -0.298 ± 0.062 |
| CCCAGGAC | -0.106 ± 0.0028 |
| CGTGTAAG | 0.134 ± 0.013 |
| TATGACCA | -0.0519 ± 0.06 |
| GGCTAACC | 0.126 ± 0.029 |
| GCTCGTCA | 0.018 ± 0.042 |
| AAACTAAA | -0.137 ± 0.024 |
| ACAGCTAC | 0.108 ± 0.04 |
| CTAATGTA | -0.28 ± 0.021 |
| GAAGAAAC | -0.196 ± 0.0032 |
| ATAACGCA | -0.0222 ± 0.013 |
| GTAGGTAA | -0.128 ± 0.056 |
| TAACCACA | 0.167 ± 0.053 |
| CCGGAAAG | -0.151 ± 0.038 |
| CATCGCTA | 0.135 ± 0.048 |
| TGTAAACA | 0.243 ± 0.039 |
| CGGGAAAG | -0.00872 ± 0.011 |
| ACGGTCAT | 0.0584 ± 0.093 |
| CTCTGACC | -0.241 ± 0.09 |
| CTTCTGTC | -0.0503 ± 0.061 |
| ACATGTAC | -0.00064 ± 0.073 |
| CGCATTTC | -0.0386 ± 0.012 |
| GCATACCA | -0.103 ± 0.054 |
| ACCCCCGA | -0.0476 ± 0.045 |

| Sequence | PBM E-score of 8-mer |
| --- | --- |
| ACCCATGA | -0.0657 ± 0.027 |
| ACGGATGC | 0.00571 ± 0.0064 |
| TGGATCAA | -0.0374 ± 0.024 |
| CCAAATCA | 0.12 ± 0.1 |
| GGACGTAA | -0.209 ± 0.032 |
| GGGAACTA | -0.00949 ± 0.0028 |
| CACGGAGC | -0.000135 ± 0.075 |
| GGCTCCAA | -0.117 ± 0.034 |
| AGAGTGGC | 0.0326 ± 0.028 |
| GATGAAGA | -0.0216 ± 0.014 |
| GAGCCCGC | 0.0327 ± 0.056 |
| ATCGCATC | 0.0664 ± 0.073 |
| ATAGACCC | -0.277 ± 0.035 |
| CAGTCGAC | 0.00736 ± 0.014 |
| AGTCTGTA | -0.109 ± 0.034 |
| TCGCGGCA | 0.194 ± 0.015 |
| CCTACGGC | -0.186 ± 0.0078 |
| CACGACTG | 0.0294 ± 0.028 |
| ATGCGATC | 0.0297 ± 0.01 |
| CATTAATC | -0.116 ± 0.045 |
| GGAGGTCA | 0.0169 ± 0.067 |
| AGGACCAT | -0.341 ± 0.0014 |
| GATCATAA | -0.138 ± 0.03 |
| AAACATAC | -0.224 ± 0.0063 |
| AGTCCTAC | -0.00302 ± 0.063 |

| Sequence | PBM E-score of 8-mer |
| --- | --- |
| CGAGCTAC | -0.0388 ± 0.1 |
| TACGGTCA | -0.0405 ± 0.015 |
| AGGTTGCG | 0.267 ± 0.044 |
| ACCGTTGC | -0.0131 ± 0.028 |
| CTAATAGC | 0.0334 ± 0.069 |
| AAATAGGC | -0.127 ± 0.036 |
| ATGTCAAG | -0.0933 ± 0.071 |
| AGTATGGG | -0.144 ± 0.045 |
| TAAATGGA | -0.18 ± 0.046 |
| GAAGACCC | -0.12 ± 0.057 |
| CCCAAATA | -0.169 ± 0.068 |
| GAGGCGCA | 0.0748 ± 0.024 |
| AAGTGCGC | 0.194 ± 0.018 |
| GTATAAAC | -0.0298 ± 0.051 |
| GGAGCCTA | -0.123 ± 0.051 |
| CATAAGAA | -0.0902 ± 0.077 |
| GCGAACCA | 0.248 ± 0.022 |
| CCACGCAG | -0.152 ± 0.074 |
| ATGAAAGG | -0.0822 ± 0.15 |
| AATTATAA | -0.131 ± 0.032 |
| TACCTTGA | 0.01 ± 0.065 |
| ATACCGAT | -0.211 ± 0.071 |
| TAAGAAGA | -0.175 ± 0.13 |
| AAAGATGC | -0.0528 ± 0.083 |
| ACCATACT | -0.187 ± 0.0022 |

| Sequence | PBM E-score of 8-mer |
| --- | --- |
| CGACTCCC | -0.0168 ± 0.035 |
| GGACACCC | 0.185 ± 0.023 |
| GCAAGCGC | -0.00549 ± 0.071 |
| AAATGAGT | -0.0358 ± 0.043 |
| ACGAAAGT | 0.00641 ± 0.0039 |
| AACCAATC | -0.211 ± 0.064 |
| AAGCGAGC | 0.194 ± 0.075 |
| TGGACCCA | -0.149 ± 0.01 |
| ATACATAG | -0.238 ± 0.11 |
| CATGACAG | -0.0894 ± 0.019 |
| AACTTCAA | -0.0508 ± 0.031 |
| ATAAAACC | -0.0786 ± 0.065 |
| CTACGCGA | 0.0131 ± 0.01 |
| ATAAGAGA | -0.127 ± 0.047 |
| GTGAAATA | 0.176 ± 0.084 |
| GAACCTGA | 0.00609 ± 0.054 |
| CAGCTTAA | -0.0965 ± 0.041 |
| GGACAACA | 0.0909 ± 0.012 |
| ACCTTCGA | 0.0873 ± 0.056 |
| ACACGACT | 0.113 ± 0.018 |
| CATCGCAA | -0.03 ± 0.019 |
| TCACGGGA | 0.0827 ± 0.011 |
| AGATACAT | -0.206 ± 0.024 |
| TGACAAAA | 0.247 ± 0.048 |
| TGCGCCCA | -0.0931 ± 0.057 |

| Sequence | PBM E-score of 8-mer |
| --- | --- |
| GGAAAGTA | -0.153 ± 0.044 |
| AACTGTGA | 0.376 ± 0.011 |
| CCCGTCAG | 0.0659 ± 0.052 |
| ACCCCTCA | 0.0972 ± 0.11 |
| CTACCCCA | -0.208 ± 0.06 |
| CTGATCTA | -0.281 ± 0.038 |
| AGCAGCGG | -0.144 ± 0.034 |
| ACCGCTCT | -0.1 ± 0.033 |
| GAGACCGC | 0.00459 ± 0.034 |
| CGCTTGTC | 0.115 ± 0.043 |
| GTGCTGTA | -0.117 ± 0.039 |
| CATGAATC | 0.0324 ± 0.072 |
| AATCGTAA | 0.0216 ± 0.031 |
| CCAGCATC | -0.0542 ± 0.036 |
| GATAAAAC | -0.0623 ± 0.043 |
| TACCCGGA | -0.128 ± 0.15 |
| CCGAGTCA | -0.101 ± 0.027 |
| CCAATGGC | 0.0452 ± 0.029 |
| AGTCAGCC | -0.105 ± 0.056 |
| AGGAGTGG | 0.0757 ± 0.084 |
| CACTAGGC | 0.0671 ± 0.05 |
| CACCAAAA | 0.0206 ± 0.046 |
| ACTACGGA | -0.16818 ± 0.00016 |
| AACACTGC | 0.303 ± 0.029 |
| ATTCAAGC | -0.0934 ± 0.054 |

| Sequence | PBM E-score of 8-mer |
| --- | --- |
| TCTGGTCA | -0.0843 ± 0.0043 |
| CAATCATA | -0.128 ± 0.0074 |
| TAAGGGCA | -0.102 ± 0.011 |
| ACCAGGGC | -0.127 ± 0.06 |
| ATCGGTAG | -0.174 ± 0.018 |
| ATAAAGAA | -0.16 ± 0.03 |
| AATACCAT | -0.0517 ± 0.012 |
| GGAAGACA | 0.0343 ± 0.043 |
| TAGTCATA | -0.0729 ± 0.045 |
| AAAAGGTA | -0.207 ± 0.011 |
| ACTCCGAA | 0.0524 ± 0.019 |
| ACTATTAG | -0.152 ± 0.02 |
| CATGTAAA | -0.0267 ± 0.0095 |
| TCCCCCCA | -0.169 ± 0.019 |
| CAAATGAA | -0.373 ± 0.021 |
| AATCCTAG | -0.3099 ± 0.0022 |
| GCCTTGAA | -0.074 ± 0.026 |
| GCGGTTTA | 0.0197 ± 0.047 |
| ATGCGATA | 0.0476 ± 0.028 |
| ATGCGAGG | 0.156 ± 0.03 |
| CCCGCAGA | -0.204 ± 0.023 |
| AAAACCCC | -0.202 ± 0.063 |
| TCTACACA | 0.117 ± 0.018 |
| ATAGTTTG | -0.0682 ± 0.0097 |
| AAGTTCCA | -0.133 ± 0.039 |

| Sequence | PBM E-score of 8-mer |
| --- | --- |
| CAAGGGCC | -0.228 ± 0.036 |
| AGCCACGC | 0.132 ± 0.097 |
| AAATTGCC | -0.133 ± 0.049 |
| GAGGCTCC | -0.0609 ± 0.00097 |
| TAAAGTTA | -0.146 ± 0.039 |
| CCGCGACC | 0.0624 ± 0.069 |
| ATGGCTCC | -0.179 ± 0.012 |
| CCCGGTCG | -0.0918 ± 0.028 |
| AGCTAGAA | -0.0692 ± 0.023 |
| AGCTGAGA | 0.188 ± 0.031 |
| CAGCAACG | 0.0905 ± 0.024 |
| GGACGACC | -0.348 ± 0.063 |
| AAACGTTC | -0.0703 ± 0.0091 |
| CGATTGCC | -0.0474 ± 0.017 |
| CGCCGCAA | -0.0243 ± 0.024 |
| AGTGCACG | -0.0198 ± 0.047 |
| AGGTTTTA | -0.123 ± 0.026 |
| CAATATGC | 0.115 ± 0.013 |
| ATCGCGTC | 0.194 ± 0.021 |
| ACTTGACT | 0.0832 ± 0.1 |
| CGCTCCTA | -0.00077 ± 0.011 |
| AGCAAAAG | -0.191 ± 0.046 |
